Measured values from the BET-seq Pho4 binding data (Le et al. 2018).
Some of the results follow. These are noisy estimates, calculated here from bound and input reads.

target: T1, Pho4 (S. cerevisiae) (UniProt P07270); experiment: relative binding free energy (BET-seq); higher = weaker binding; details: reference: library average
T1 sequence: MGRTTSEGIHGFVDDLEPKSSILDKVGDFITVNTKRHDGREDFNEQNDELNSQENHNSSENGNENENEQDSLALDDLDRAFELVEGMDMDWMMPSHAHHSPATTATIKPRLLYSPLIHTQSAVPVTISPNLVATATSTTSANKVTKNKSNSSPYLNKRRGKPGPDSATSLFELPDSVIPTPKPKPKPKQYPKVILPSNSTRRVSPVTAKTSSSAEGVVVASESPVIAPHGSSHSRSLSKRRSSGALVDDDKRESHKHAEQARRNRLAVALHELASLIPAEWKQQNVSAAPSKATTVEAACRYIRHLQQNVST

Relative binding free energy, -0.03 kcal/mol:
TGTCGCACGTGTGTTG
AACAGCACGTGTGTTG
TAAGGCACGTGTTTCA
TGCCACACGTGGTGGG
TATTGCACGTGGATAT

Relative binding free energy, 0.17 kcal/mol:
GTTGACACGTGTGGGT
GTATTCACGTGGCGTA
GATATCACGTGGAGTT
GATTACACGTGGGATG

Relative binding free energy, -0.25 kcal/mol:
CTGGGCACGTGCTAGG
ACACGCACGTGGGGTT

Relative binding free energy, 0.3 kcal/mol:
TAGATCACGTGAGGTT

Relative binding free energy, 0.2 kcal/mol:
CATTTCACGTGTTAAT
GTGCTCACGTGGTATG
GGCTTCACGTGTCGTG
ATGATCACGTGCGGTT
GTGGTCACGTGTAGTG

Relative binding free energy, 0.34 kcal/mol:
GGGTTCACGTGCATTA
GCGTTCACGTGGATTG

Relative binding free energy, -0.06 kcal/mol:
GTGCACACGTGGTAGT
ATTGTCACGTGGATAG
CATGGCACGTGGACGG
GTTGGCACGTGGTATG

Relative binding free energy, 0.26 kcal/mol:
GTGATCACGTGTGTGA
ATAGTCACGTGGAAAT

Relative binding free energy, 0.44 kcal/mol:
TGTTTCACGTGGATTA

Relative binding free energy, 0.09 kcal/mol:
TGTTACACGTGTTCGC
TGAATCACGTGGGCCG
GATGACACGTGGTGGG
TGGTGCACGTGCTGAC
GGTAGCACGTGTCTGG
AGGGTCACGTGGGAAT
ATGTGCACGTGTGATT
ATATGCACGTGGAAAG

Relative binding free energy, 0.03 kcal/mol:
TCATACACGTGTAGTT
GTGGACACGTGGGTTG
CTTAACACGTGTGGAG
TGTTGCACGTGGAGAA
TGTATCACGTGGGCTG
CATTACACGTGGTGTT

Relative binding free energy, -0.16 kcal/mol:
ATCGTCACGTGGGGCT
GCGGGCACGTGGGAGG
TAAAACACGTGGGTTG
ATGTCCACGTGGGTGG

Relative binding free energy, -0.2 kcal/mol:
TGTTGCACGTGGCTTA
AATGGCACGTGGGTGT
GTGAGCACGTGGTATG

Relative binding free energy, 0.01 kcal/mol:
TTAAACACGTGGTCGT
TAAAACACGTGTTTAG
TTAGTCACGTGGGATC

Relative binding free energy, -0.02 kcal/mol:
AGTGTCACGTGGAGGT
CGGGACACGTGGAGTA
CTTGTCACGTGGGATA
AGTGTCACGTGGTGGT
AATAGCACGTGTCAGG
GTGAACACGTGTGCTG
TTCCGCACGTGTGGGA
TAATGCACGTGTGATA

Relative binding free energy, 0.21 kcal/mol:
AGCTCCACGTGAGGGG
TTAAACACGTGAAGGT
TCTTTCACGTGTTATA
GTTTACACGTGTAAGA
AAAGACACGTGATTTT
ATAGTCACGTGTGCGT

Relative binding free energy, 0.18 kcal/mol:
GAGGGCACGTGAAAGT
CGTGTCACGTGTTGAG
AAAGTCACGTGATTGG
GTTTCCACGTGTATGG
GTTTTCACGTGCGCTT
GCGGGCACGTGAAGTT

Relative binding free energy, 0.05 kcal/mol:
CGAGCCACGTGAGGGG
TATGTCACGTGCGGTT

Relative binding free energy, -0.18 kcal/mol:
CGAAGCACGTGGGGAT

Relative binding free energy, 0.49 kcal/mol:
AATATCACGTGAATAT

Relative binding free energy, 0.28 kcal/mol:
TCTTTCACGTGAATTT

Relative binding free energy, -0.27 kcal/mol:
AGTGGCACGTGTGCTG

Relative binding free energy, -0.13 kcal/mol:
TGGGGCACGTGCGAGC
TGGGGCACGTGTCCTT

Relative binding free energy, -0.19 kcal/mol:
TGGTGCACGTGGGGGA
GGGACCACGTGGGGAT

Relative binding free energy, 0 kcal/mol:
GAGGTCACGTGGCGTA
GTGCACACGTGTTAGG
CTTTACACGTGTTTTG
AAGGGCACGTGTGTTT
CGGGGCACGTGTGGAG
AGTGACACGTGGGAAA
TGTTACACGTGCAGTG
TATACCACGTGATGTT

Relative binding free energy, 0.24 kcal/mol:
GAGGTCACGTGAGTGA
TGGGTCACGTGAGCTG
CTACTCACGTGTTGGT

Relative binding free energy, 0.45 kcal/mol:
CTGTTCACGTGAGTAT

Relative binding free energy, -0.22 kcal/mol:
TGGCGCACGTGCGGTT
TAGGGCACGTGCTGCG

Relative binding free energy, -0.01 kcal/mol:
TGATGCACGTGTAGCG
TGTATCACGTGGGCAG

Relative binding free energy, -0.17 kcal/mol:
TAAGGCACGTGCGTTA

Relative binding free energy, 0.1 kcal/mol:
GTTAGCACGTGATGTA
GGTGTCACGTGCAGCG
GAGCGCACGTGTATGG
TATCACACGTGTTGGA
CGTATCACGTGTGGCG

Relative binding free energy, 0.14 kcal/mol:
ACGGGCACGTGATGGT
TTTGTCACGTGTCTGG
ATAGTCACGTGGAGAT

Relative binding free energy, -0.12 kcal/mol:
GATGGCACGTGGTTAT
CTTGACACGTGGGGCT
TTGAGCACGTGGCAGG
TTGTGCACGTGCTTGC
GGGGGCACGTGTAGTA

Relative binding free energy, 0.22 kcal/mol:
GCGTTCACGTGGGGAT
GTTATCACGTGGCTAA
TGGTTCACGTGGGGTG
ACTATCACGTGTTGGT

Relative binding free energy, 0.11 kcal/mol:
GATGTCACGTGTATTG
AGGATCACGTGGAGAT
GTTGTCACGTGGCCAG
GGTACCACGTGTGTTT

Relative binding free energy, -0.09 kcal/mol:
TATTGCACGTGGTGGG

Relative binding free energy, 0.39 kcal/mol:
GTGGTCACGTGATTGG

Relative binding free energy, 0.41 kcal/mol:
GTTTTCACGTGGACAG

Relative binding free energy, 0.25 kcal/mol:
GACATCACGTGTGGGG
GGGTACACGTGTAATG

Relative binding free energy, -0.04 kcal/mol:
TGTGTCACGTGGCATG
GGAGTCACGTGCTGGG
TATGACACGTGGATGT
ATGTACACGTGTTTAT
ATGGACACGTGGTGGG
TTGTGCACGTGGAGAA
GTATGCACGTGGTTGA
TTGGGCACGTGGTCGG
ATAAACACGTGGTGAT
TTGCGCACGTGGAAGT
AGCTTCACGTGGGCGG

Relative binding free energy, 0.37 kcal/mol:
GGTTTCACGTGCGTCA
GGTAACACGTGAAGGG

Relative binding free energy, 0.07 kcal/mol:
GTTGACACGTGGTGTA
TTATACACGTGTATGA
TTTGACACGTGATGAA
GGGGACACGTGGACAT

Relative binding free energy, 0.04 kcal/mol:
TTTTGCACGTGCGGTA
TTAATCACGTGGTAGA
TGATCCACGTGGTGGC

Relative binding free energy, 0.32 kcal/mol:
GTATTCACGTGCTTTA
CGGGTCACGTGAAGCG

Relative binding free energy, 0.36 kcal/mol:
TCTTGCACGTGAAGTT
GCGGTCACGTGTAGTA
GGTCTCACGTGACGTG
GGCTTCACGTGTGAGT

Relative binding free energy, 0.13 kcal/mol:
AGATTCACGTGTTGCT
GAGGACACGTGGGTTC
TTTGACACGTGTGGCC
GTGAACACGTGTGGTA
GTGGGCACGTGAGTCT
TGGATCACGTGTTATT

Relative binding free energy, 0.16 kcal/mol:
TTGTCCACGTGTCGTG
GCGGGCACGTGAGTGA

Relative binding free energy, -0.05 kcal/mol:
TTTTGCACGTGGGTGA
TAGGTCACGTGTTCAG
AGTTGCACGTGTATAT
GTTGGCACGTGGTTTC
TTTTACACGTGGGACT

Relative binding free energy, -0.07 kcal/mol:
GATAGCACGTGGGAGC
TGTATCACGTGGGGGA
CGTAACACGTGGTAGG
TTATGCACGTGGAGGG
GGTAGCACGTGTACGG

Relative binding free energy, 0.06 kcal/mol:
GCTGGCACGTGTTAAT
TTAGTCACGTGTATAA
AATAGCACGTGTGATT

Relative binding free energy, 0.35 kcal/mol:
ATGCTCACGTGGGACT

Relative binding free energy, 0.23 kcal/mol:
TGCTTCACGTGTTTAG
CTGTTCACGTGGCGAG
TAAAGCACGTGAGATT
ATGGACACGTGATTGT

Relative binding free energy, -0.08 kcal/mol:
GTGTACACGTGCGCGG
GTAAGCACGTGGGGCC
TCGGGCACGTGGGGCC
AATTGCACGTGTCAGT
GATAGCACGTGGTTGG

Relative binding free energy, -0.1 kcal/mol:
GAGCGCACGTGTTTTG
TTCGGCACGTGGGGTC
ATAGGCACGTGTGGAA
ATAAGCACGTGCTTTT

Relative binding free energy, -0.29 kcal/mol:
ATTGACACGTGGTCGT

Relative binding free energy, 0.15 kcal/mol:
TTGCTCACGTGCAGGT
TAAGACACGTGTTCTT
GAAGACACGTGGTGAG
TTTGACACGTGAGGAT
ATTGTCACGTGTTATT

Relative binding free energy, 0.38 kcal/mol:
GACTGCACGTGAGTGG
GTAATCACGTGAAGAG

Relative binding free energy, 0.33 kcal/mol:
GGGCTCACGTGACGTG

Relative binding free energy, 0.12 kcal/mol:
ATGATCACGTGGTTTC
ATTTCCACGTGGTGGG
AGCTTCACGTGGGTAT
AGAGTCACGTGGACTG
TTAGTCACGTGTTTGG
GTAAGCACGTGTGAAG

Relative binding free energy, -0.21 kcal/mol:
TCTGCCACGTGGTGTT

Relative binding free energy, 0.02 kcal/mol:
AAAGTCACGTGGCTGG
GTAAGCACGTGCTTTT
AAGGGCACGTGATTGA

Relative binding free energy, 0.08 kcal/mol:
ATGAGCACGTGATGGG
CAATGCACGTGTGGGT
TTGTCCACGTGGTAAT
CAGTACACGTGGTGGC
GTATGCACGTGTAGTG

Relative binding free energy, 0.19 kcal/mol:
ATGGTCACGTGTCCGT
TTTATCACGTGTGGTG
ATATACACGTGAGTGG
GCGGTCACGTGGATTG

Relative binding free energy, -0.15 kcal/mol:
TTATGCACGTGGGTTA
AGTACCACGTGTTTGT

Relative binding free energy, 0.27 kcal/mol:
TTAGTCACGTGAGTAG
ATATTCACGTGTTGGC
TACGTCACGTGATGTT
TATCTCACGTGGACGT

Relative binding free energy, -0.14 kcal/mol:
GAAAGCACGTGGGATG
TTTGGCACGTGCTACG
TAAGGCACGTGCGTGT
ATATCCACGTGTTTGG
CGGAGCACGTGGTTGT

Relative binding free energy, 0.31 kcal/mol:
GTAGTCACGTGAGTCA

Relative binding free energy, 0.29 kcal/mol:
GGGGTCACGTGACAGT

Relative binding free energy, -0.26 kcal/mol:
TAAGGCACGTGGGCTA

Relative binding free energy, -0.11 kcal/mol:
TAACGCACGTGGTGGA
TGCAGCACGTGTGAGG
AGGGCCACGTGGTTAT

Relative binding free energy, -0.23 kcal/mol:
ACTGGCACGTGTTAGT
